Experimental findings from a collection of fitness landscapes (doi:10.1126/science.1257360) are described below.

To fix the notation:
B1: PhoQ; a variant is named by its letters at X, in order, P23837 (parent)
chain: MKKLLRLFFPLSLRVRFLLATAAVVLVLSLAYGMVALIGYSVSFDKTTFRLLRGESNLFYTLAKWENNKLHVELPENIDKQSPTMTLIYDENGQLLWAQRDVPWLMKMIQPDWLKSNGFHEIEADVNDTSLLLSGDHSIQQQLQEVREDDDDAEMTHSVAVNVYPATSRMPKLTIVVVDTIPVELKSSYMVWSWFIYVLSANLLLVIPLLWVAAWWSLRPIEALAKEVRELEEHNRELLNPATTRELTSLVRNLNRLLKSERERYDKYRTTLTDLTHSLKTPLXXLQXXLRSLRSEKMSVSDAEPVMLEQISRISQQIGYYLHRASMRGGTLLSRELHPVAPLLDNLTSALNKVYQRKGVNISLDISPEISFVGEQNDFVEVMGNVLDNACKYCLEFVEISARQTDEHLYIVVEDDGPGIPLSKREVIFDRGQRVDTLRPGQGVGLAVAREITEQYEGKIVAGESMLGGARMEVIFGRQHSAPKDE

The list shows a part of the results.

Variants of B1 are the subject of the assay. The assay is described as follows: enrichment ratio after two sorts for PhoP signalling (ratio (wild type AVST 3.29)); higher = more functional. Conditions: with PhoP (E. coli).
Regarding LDWW, the enrichment ratio was at most 0.25.

On to ATCK, for which the enrichment ratio is 3.27.

HQYD: the enrichment ratio is at most 0.25.

Regarding WDLT, the enrichment ratio is at most 0.25.

IYVW: the enrichment ratio was at most 0.25.

Regarding EFET, the enrichment ratio is at most 0.25.

Take LHMD: the enrichment ratio was at most 0.25.

Consider KKFV, for which the enrichment ratio was at most 0.25.

Turning to IQLH, the enrichment ratio is at most 0.25.

TYIM: the enrichment ratio is at most 0.25.

AYCV: the enrichment ratio was at most 0.25.

On to KQTT, for which the enrichment ratio is at most 0.25.

On to EMLQ, for which the enrichment ratio is at most 0.25.

For GNPY, the enrichment ratio is at most 0.25.

Regarding GDLT, the enrichment ratio was at most 0.25.

QMGG: the enrichment ratio is at most 0.25.

As to FHFH, the enrichment ratio was at most 0.25.

As for TWVM, the enrichment ratio was at most 0.25.

For MKPI, the enrichment ratio was at most 0.25.

Regarding PDTQ, the enrichment ratio was at most 0.25.

As to PLWP, the enrichment ratio was at most 0.25.

Turning to SFYM, the enrichment ratio was at most 0.25.

With MVMA, the enrichment ratio is at most 0.25.

With MCII, the enrichment ratio was at most 0.25.

As for PGHE, the enrichment ratio was at most 0.25.

For the variant DECP, the enrichment ratio was at most 0.25.

WWPY: the enrichment ratio is at most 0.25.

With SAKI, the enrichment ratio is at most 0.25.

For the variant HPHT, the enrichment ratio is at most 0.25.

With MPWR, the enrichment ratio is at most 0.25.

For the variant PSKT, the enrichment ratio is at most 0.25.

In the case of FAQS, the enrichment ratio is at most 0.25.

Take VQFM: the enrichment ratio was at most 0.25.

As to PEDL, the enrichment ratio was at most 0.25.

For GVIT, the enrichment ratio was at most 0.25.

KLSL: the enrichment ratio was at most 0.25.

Turning to GQCD, the enrichment ratio is at most 0.25.

Take PTDQ: the enrichment ratio is at most 0.25.

In the case of PYMQ, the enrichment ratio is at most 0.25.

Turning to GHPS, the enrichment ratio is at most 0.25.

As to DEFY, the enrichment ratio is at most 0.25.

DYCT: the enrichment ratio is at most 0.25.

Consider EHKV, for which the enrichment ratio was at most 0.25.

In the case of NRNE, the enrichment ratio was at most 0.25.

For SIDW, the enrichment ratio was at most 0.25.

Regarding PSIN, the enrichment ratio was at most 0.25.

On to YQCI, for which the enrichment ratio was at most 0.25.

For GHVY, the enrichment ratio was at most 0.25.

Regarding DHPF, the enrichment ratio is at most 0.25.

For the variant GDTF, the enrichment ratio was at most 0.25.

As for QSSK, the enrichment ratio was at most 0.25.

With DPIA, the enrichment ratio was at most 0.25.

In the case of YMCK, the enrichment ratio was at most 0.25.

Turning to IASL, the enrichment ratio is at most 0.25.

Turning to HELM, the enrichment ratio is 5.66.

ADLS: the enrichment ratio was 2.75.

Turning to SRRQ, the enrichment ratio was at most 0.25.

In the case of YRQD, the enrichment ratio is at most 0.25.

With DYNA, the enrichment ratio was at most 0.25.

For DKFL, the enrichment ratio is at most 0.25.

On to NISW, for which the enrichment ratio is at most 0.25.

As to QTRQ, the enrichment ratio is at most 0.25.

For the variant QKTT, the enrichment ratio was at most 0.25.

Take LYHF: the enrichment ratio is at most 0.25.

With DIGI, the enrichment ratio is at most 0.25.

On to DDSC, for which the enrichment ratio was at most 0.25.

Regarding PCAI, the enrichment ratio is at most 0.25.

With YDHT, the enrichment ratio is at most 0.25.

For the variant EVGS, the enrichment ratio is at most 0.25.

IACL: the enrichment ratio is at most 0.25.

Regarding PDYL, the enrichment ratio was at most 0.25.

For the variant EEQF, the enrichment ratio was at most 0.25.

For FWYV, the enrichment ratio was at most 0.25.

On to DNKI, for which the enrichment ratio is at most 0.25.

In the case of VPQK, the enrichment ratio is at most 0.25.

For QDAK, the enrichment ratio was at most 0.25.

In the case of HCRA, the enrichment ratio is at most 0.25.

With GVIG, the enrichment ratio is 2.7.

In the case of FRSK, the enrichment ratio is at most 0.25.

With TPTQ, the enrichment ratio is at most 0.25.

Take MKYI: the enrichment ratio was at most 0.25.

In the case of HFWS, the enrichment ratio is at most 0.25.

As for ITIH, the enrichment ratio was at most 0.25.

For the variant IVVI, the enrichment ratio is at most 0.25.

Consider QGCV, for which the enrichment ratio was determined as 3.61.

For VCCA, the enrichment ratio is at most 0.25.

With MLPM, the enrichment ratio is at most 0.25.

In the case of RGMH, the enrichment ratio is at most 0.25.

On to EKYC, for which the enrichment ratio is at most 0.25.

DLEG: the enrichment ratio was at most 0.25.

Regarding IALA, the enrichment ratio is at most 0.25.

On to VNND, for which the enrichment ratio was at most 0.25.

On to EYWI, for which the enrichment ratio is at most 0.25.

Consider IGYM, for which the enrichment ratio is at most 0.25.

Consider DLWV, for which the enrichment ratio is at most 0.25.

Consider SEPA, for which the enrichment ratio is at most 0.25.

Take WNSY: the enrichment ratio was at most 0.25.

In the case of ERCQ, the enrichment ratio was at most 0.25.

Consider KRCI, for which the enrichment ratio was at most 0.25.

Regarding IAYT, the enrichment ratio is at most 0.25.

MVGM: the enrichment ratio is 7.35.

Consider ESMA, for which the enrichment ratio is at most 0.25.

As for GFQL, the enrichment ratio is at most 0.25.

As for IALD, the enrichment ratio is at most 0.25.

Take RMMF: the enrichment ratio is at most 0.25.

For the variant VFLN, the enrichment ratio was at most 0.25.

With NYRS, the enrichment ratio is at most 0.25.

Turning to IEQM, the enrichment ratio was at most 0.25.

Turning to QYIF, the enrichment ratio was at most 0.25.

Turning to VPVR, the enrichment ratio was at most 0.25.

Consider RKLH, for which the enrichment ratio is at most 0.25.

Turning to VKDH, the enrichment ratio is at most 0.25.

Turning to DMYD, the enrichment ratio was determined as 1.02.

Take EIMH: the enrichment ratio is at most 0.25.

Consider NHCG, for which the enrichment ratio was at most 0.25.

Take SIPN: the enrichment ratio is at most 0.25.

With NIME, the enrichment ratio is at most 0.25.

With FSCH, the enrichment ratio was 0.442.

As for TQGT, the enrichment ratio stood at 0.286.

With EFDV, the enrichment ratio is at most 0.25.

Regarding IYQT, the enrichment ratio is at most 0.25.

Regarding WQQI, the enrichment ratio is at most 0.25.

With AMQF, the enrichment ratio is at most 0.25.

As for HVTG, the enrichment ratio is at most 0.25.

As for IWHG, the enrichment ratio was at most 0.25.

As for VSHG, the enrichment ratio is at most 0.25.

On to LINE, for which the enrichment ratio is at most 0.25.

NPGY: the enrichment ratio was at most 0.25.

ILPK: the enrichment ratio is at most 0.25.

Consider VRDS, for which the enrichment ratio is at most 0.25.

LWDS: the enrichment ratio was at most 0.25.

Regarding SMCT, the enrichment ratio came out at 11.

Turning to MFRW, the enrichment ratio was at most 0.25.

As for AINR, the enrichment ratio was at most 0.25.

With NDAI, the enrichment ratio is 3.29.

As to NCDK, the enrichment ratio is at most 0.25.

With PVED, the enrichment ratio is at most 0.25.

As to QQHT, the enrichment ratio is at most 0.25.

Consider TPIA, for which the enrichment ratio was at most 0.25.

Consider SPQF, for which the enrichment ratio is at most 0.25.

As for ILCR, the enrichment ratio was at most 0.25.

Turning to KGAP, the enrichment ratio is at most 0.25.

On to DIMD, for which the enrichment ratio is at most 0.25.

AVAE: the enrichment ratio is at most 0.25.

For NVSG, the enrichment ratio is at most 0.25.

For WIIS, the enrichment ratio was at most 0.25.

Consider MWPL, for which the enrichment ratio was at most 0.25.

Turning to APHN, the enrichment ratio was at most 0.25.

As to YPIQ, the enrichment ratio is at most 0.25.

VHLC: the enrichment ratio is at most 0.25.

In the case of KRFY, the enrichment ratio is at most 0.25.

For DHYD, the enrichment ratio was at most 0.25.

With MLDA, the enrichment ratio was at most 0.25.

Turning to IWWG, the enrichment ratio was at most 0.25.

With DFHN, the enrichment ratio was at most 0.25.

Turning to EMKP, the enrichment ratio was at most 0.25.

Consider QADY, for which the enrichment ratio is 11.7.

In the case of QNYE, the enrichment ratio is at most 0.25.

As to MKRE, the enrichment ratio is at most 0.25.

As to YSKM, the enrichment ratio was at most 0.25.

For VALE, the enrichment ratio amounted to 2.02.

For the variant APNV, the enrichment ratio was at most 0.25.

In the case of HWCC, the enrichment ratio was at most 0.25.

Turning to KFCP, the enrichment ratio was at most 0.25.

Take AGNR: the enrichment ratio is at most 0.25.

Take FWAD: the enrichment ratio is at most 0.25.

Take KHSN: the enrichment ratio was at most 0.25.

With GHNR, the enrichment ratio is at most 0.25.

With LQYP, the enrichment ratio is at most 0.25.

As for NLRH, the enrichment ratio was at most 0.25.

Take MDGF: the enrichment ratio is at most 0.25.

Take SKHK: the enrichment ratio is at most 0.25.

HCDL: the enrichment ratio is at most 0.25.

As to LSER, the enrichment ratio is at most 0.25.

Take INPK: the enrichment ratio is at most 0.25.

For YFGQ, the enrichment ratio was at most 0.25.

For the variant EAAY, the enrichment ratio was at most 0.25.

On to QNFH, for which the enrichment ratio was at most 0.25.

As for KFCV, the enrichment ratio was at most 0.25.

With QQED, the enrichment ratio was at most 0.25.

For the variant VHAI, the enrichment ratio is at most 0.25.

For PKAV, the enrichment ratio is at most 0.25.

On to GLWS, for which the enrichment ratio is at most 0.25.

Regarding VKSN, the enrichment ratio was at most 0.25.

Regarding MQCQ, the enrichment ratio was at most 0.25.

For QFDG, the enrichment ratio was at most 0.25.

As to WSRE, the enrichment ratio was at most 0.25.

Consider ELGM, for which the enrichment ratio was at most 0.25.

MMDL: the enrichment ratio is at most 0.25.

Turning to FGTT, the enrichment ratio was at most 0.25.

For the variant WIWG, the enrichment ratio was at most 0.25.

As for VQML, the enrichment ratio is at most 0.25.

Take WDFP: the enrichment ratio is at most 0.25.

For the variant EYEI, the enrichment ratio is at most 0.25.

Consider GRPA, for which the enrichment ratio was at most 0.25.
